Source: PubChem BioAssay AID686971 (National Center for Advancing Translational Sciences (NCATS), 2013)
Where “and” joins values, the source holds several entries; their conditions need not be identical. Equal values may be shown once. About 7,500 (2.1%) of roughly 360,000 compounds were called active. This list was built around the results that the source calls inconclusive (neither active nor inactive); the mix of calls is not that of the screen. Calls follow the shape of the dose curve; as a rule, active = well fitted cell-killing curve with a large enough effect; inconclusive = small, poorly fitted or top-dose-only effect, or effect the other way, or another doubt; inactive = no such curve, though single readings can be large or run the other way. A potency beside an inconclusive call is a rough fit, not a confirmed value.

Experiment: qHTS for induction of synthetic lethality in tumor cells producing 2HG: qHTS for the HT-1080-IDH1KD cell line;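 as to activity, negative = toxicity: 0% = DMSO wells and -100% = cell-free medium wells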
Details: HT-1080 IDH1 knockdown viability, ATP luminescence, 48 h; activity, negative = toxicity: at 46.1 µM (top of the series) unless noted
How it was run: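 Viability of IDH1-knockdown HT-1080 fibrosarcoma cells was assessed by CellTiter-Glo after 48 h at 37 °C with titrated compound; concentration-effect curves were classified by fit quality and response size.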
Potency is read from the fitted curve at half-maximal effect; tags tell the direction and shape of the fitted curve.

SMILES	Potency	activity, negative = toxicity
CO/N=C/c1cccn1-c1nccc(OC)c1C#N	inactive	
CC(C)NC(=O)C1C(c2ccc(C(F)(F)F)cc2)=Nc2ccccc2N1C(=O)c1ccco1 (stereo unspecified)	inconclusive: 8.2 µM [cytotoxic, partial curve]	
CCOC(=O)CSC1=C(C#N)C(c2ccccc2)C(C(C)=O)=C(C)N1 (stereo unspecified)	inactive	
CC(C)C(=O)N=C1SC2CS(=O)(=O)CC2N1Cc1ccccc1 (stereo unspecified)	inactive	
COC(=O)c1cccc(NC(=S)Nc2ccc(Cl)c(Cl)c2)c1	inconclusive: 29.1 µM [cytotoxic, single point]	
Cc1ccc(C)c(CN2CCNC2=O)c1		inconclusive: -5.53% [cytotoxic]
O=c1c2ccccc2nc(-c2cccc(Cl)c2)n1O	inconclusive: 35.5 µM [cytotoxic, single point]	
COc1ccc(C(=O)CCN2CCc3cc(OC)c(OC)cc3C2)cc1	inconclusive: 29.1 µM [cytotoxic, single point]	
O=C(NNC(=O)c1ccc(SCC2CCCO2)c([N+](=O)[O-])c1)c1ccc(Cl)c([N+](=O)[O-])c1 (stereo unspecified)	inconclusive: 15.8 µM [cytotoxic, single point]	
O=C(N/N=C/c1cccnc1)c1cc(-c2ccc(Br)cc2)nc2ccccc12	inconclusive: 11.6 µM [cytotoxic, partial curve]	
CCOC(=O)CNC(=O)c1sc(NC(=O)c2ccccc2)nc1C	inconclusive: 16.4 µM [cytotoxic, single point]	
Nc1ccc(S(=O)(=O)Nc2cnc3ccccc3n2)cc1	inactive	
Cc1cccc(NC(=O)N2CCC(C(=O)c3ccc(F)cc3)CC2)c1	inconclusive: 25.9 µM [cytotoxic, partial curve]	
CCCC[C@@H](CNC)NC[C@H](NCCCCC1CCCCC1)C(C)C	inconclusive: 29.1 µM [cytotoxic, single point]	
COc1cccc(/C=N/NC(=O)CSCC(=O)Nc2ccccc2)c1O	active: 2 µM	
CCOc1ccc(C2=C(C=Nc3c(C)n(C)n(-c4ccccc4)c3=O)C(c3ccc(F)cc3)c3ccccc3O2)cc1 (stereo unspecified)	inactive	
Cc1ccc(-c2csc(NC(=O)CN3CC(C)OC(C)C3)n2)cc1 (stereo unspecified)	inconclusive: 14.6 µM [cytotoxic, partial curve]	
COc1cccc(-c2nc(CS(=O)(=O)CC(=O)NCCCN3CC(C)CC(C)C3)c(C)o2)c1 (stereo unspecified)	inconclusive: 20.6 µM [cytotoxic, single point]	
CC(C)c1ccc(C(=O)CSc2ncn[nH]2)cc1	inconclusive: 35.5 µM [cytotoxic, single point]	
O=C(CCSc1ccc(Cl)cc1)N1CCN(c2ccc(O)cc2)CC1	inconclusive: 2.06 µM [cytotoxic, full curve]	
C=CCN(CC=C)C(=S)NC(=O)c1ccc(OC)cc1	inactive	
O=C(CNC(=O)c1ccco1)OCC(=O)c1ccc(Br)cc1	inactive	
Cc1ccc(CNC(=O)Cn2nnc(C(=O)Nc3cccc(C)c3C)c2N)cc1	inconclusive: 23.1 µM [cytotoxic, single point]	
CC1Sc2ccc(S(=O)(=O)CCC(=O)N3CCN(c4cccc(Cl)c4)CC3)cc2NC1=O (stereo unspecified)	inconclusive: 23.1 µM [cytotoxic, single point]	

SMILES	Potency	activity, negative = toxicity
O=C(N/N=C/c1ccc2cccc(OCc3ccccc3)c2n1)c1ccc(Br)cc1	inconclusive: 25.9 µM [cytotoxic, partial curve]	
O=C(CSCC(=O)OCC(=O)N1CCN(C(=O)c2ccco2)CC1)Nc1ccc(Cl)cc1	inactive	
CCCC[C@@H](CN[C@H](C)CNC)NCC1CCC(C(C)(C)C)CC1 (stereo partly specified)	active: 18.4 µM	
CCOC(=O)C1=C(C)NC(=O)NC1c1ccc(OC)c(Cl)c1 (stereo unspecified)	inconclusive: 20 µM [cytotoxic, single point]	
COC(=O)c1c(C)[nH]c(-c2csc(N)n2)c1C	inconclusive: 18.4 µM [cytotoxic, single point]	
COC(=O)/C(=C1/Oc2cc(C)oc(=O)c2S1)C(F)(F)F	active: 14.6 µM	
O=C(COc1ccc(-c2ccccc2)cc1)N1CCN(S(=O)(=O)Cc2ccccc2)CC1	inconclusive: 18.4 µM [cytotoxic, partial curve]	
N#Cc1ccc(C(=O)OCC(=O)N2CCN(C(=O)c3ccco3)CC2)cc1	inactive	
O=C(Nc1ccc(CN2CCCCC2)cc1)c1sc2ccccc2c1Cl	inconclusive: 29.1 µM [cytotoxic, single point]	
Cn1c(SCc2ccc(C(C)(C)C)cc2)nnc1C1COc2ccccc2O1 (stereo unspecified)	inconclusive: 29.1 µM [cytotoxic, single point]	
C(=NNc1nnn(Cc2ccccc2)n1)c1ccccc1	active: 18.4 µM	
Cc1cc(C)cc(N(CC(=O)Nc2ccc(-c3nc4ccc(C)cc4s3)cc2)S(C)(=O)=O)c1	inconclusive: 29.1 µM [cytotoxic, single point]	
C=CCNc1nnc(Cc2ccc(C(C)C)cc2)c(=O)[nH]1	inactive	
O=C(Nc1ncc(Cc2cccc(C(F)(F)F)c2)s1)c1ccc(-c2cccc([N+](=O)[O-])c2)o1	inconclusive: 18.4 µM [cytotoxic, single point]	
Cc1cc2oc(=O)c(CC(=O)O)c(C)c2c2occ(C(C)(C)C)c12	inactive	
CCc1ccc(NC(=O)CCc2nc3sc4c(c3c(=O)[nH]2)CCCC4)cc1	inconclusive: 18.4 µM [cytotoxic, single point]	
Cc1ccc(C)c(/C=C/C(=O)c2ccccc(=O)c2O)c1	active: 14.6 µM	
CCCCNc1c(-c2ccc(OC)c(SC(C)CC)c2)nc2ccc(C)cn12 (stereo unspecified)	inconclusive: 29.1 µM [cytotoxic, single point] and inconclusive: 20.6 µM [cytotoxic, single point]	
CN(C)/C=C1\C(=O)Oc2ccccc2C1=O	inconclusive: 23.1 µM [cytotoxic, partial curve]	
C=CCn1c(SCc2csc(-c3ccc(Cl)cc3)n2)nnc1-c1ccccc1OC	inconclusive: 32.6 µM [cytotoxic, single point]	
O=C(NCCCn1ccnc1)c1ccc(Cl)s1	inactive	
COC(=O)c1cc(C(=O)N2CCN(c3cccc(C)c3C)CC2)cc([N+](=O)[O-])c1	active: 2.31 µM	
Cc1ccc2nc(SCCCCOc3ccccc3)[nH]c2c1	inconclusive: 29.1 µM [cytotoxic, single point]	
C#CCOCCOCCOCCNc1nc(N2CCN(C(=O)Cn3cc(CCCCN)nn3)CC2)nc(N2CCN(C(=O)[C@H](C(C)C)n3cc(CCO)nn3)CC2)n1	inconclusive: 29.1 µM [rising, single point]	

SMILES	Potency	activity, negative = toxicity
Cc1nc(NC(=O)CN2CCCCC2)sc1C(=O)N(C)C	inactive	
COc1cc(OC)c(CN2CCC(CO)(CCOc3ccccc3)CC2)c(OC)c1	inconclusive: 16.4 µM [cytotoxic, partial curve]	
OC(COc1ccc(Br)cc1)CN1CCC(Cc2ccccc2)CC1 (stereo unspecified)	inconclusive: 29.1 µM [cytotoxic, single point]	
COc1ccccc1Cc1c(-c2ccc(Cl)cc2)nc2c(Cl)cc(C(F)(F)F)cn12	inactive	
Cn1c(=O)cc(SCC(=O)NCc2ccc(F)cc2)c2ccccc21	inconclusive: 29.1 µM [cytotoxic, single point]	
Cc1ccc(CCNC(=O)CSCc2ccc(F)cc2)cc1	inactive	
CC1(C)COCN1S(=O)(=O)c1ccc(C(=O)Nc2nnc(-c3ccc(Cl)s3)o2)cc1	active: 2.82 µM	
O=C1Nc2ccccc2C1(c1ccccc1)c1ccccc1	inconclusive: 23.1 µM [cytotoxic, single point]	
COc1ccc(-n2cc(-c3ccc(C)cc3)[n+]3c2SCC3)cc1	active: 2.31 µM	
Cc1cccc(CS(=O)(=O)c2ncc(Cl)c(C(=O)NCc3ccccc3)n2)c1	inconclusive: 20.6 µM [cytotoxic, single point]	
CC(C)CCCCCCCCCCCCC(=O)NCC(=O)NC1C(O)C(O)C(Nc2ncnc3nc[nH]c23)OC1C(O)CO (stereo unspecified)	active: 0.164 µM	
COc1ccc(CNC(=O)C/C(C)=N/NC(=O)C23CC4CC(CC(C4)C2)C3)cc1	inactive	
COc1ccc(CCNC(=O)COC(=O)c2cc3ccccc3oc2=O)cc1OC	inconclusive: 16.4 µM [cytotoxic, single point]	
COc1cccc(C(=O)N2CCCc3ccccc32)c1	inactive	
Cc1csc(=O)n1CCC(=O)N(C)Cc1c(F)cccc1Cl	inactive	
CC1CCC(C(C)C)C(OC(=O)Cn2c(-c3ccc(F)cc3)[n+](C)c3ccccc32)C1 (stereo unspecified)	active: 10.3 µM	
O=C(Nc1nc2c(s1)CCCC2)c1ccc(Br)s1	inconclusive: 17.8 µM [cytotoxic, single point]	
OC(c1ccc(F)cc1)c1nc(-c2cccc(C(F)(F)F)c2)cs1 (stereo unspecified)	inconclusive: 29.1 µM [cytotoxic, single point]	
O=C(COc1cccc(C(F)(F)F)c1)N1CCN(c2ccc(O)cc2)CC1	inconclusive: 25.9 µM [cytotoxic, partial curve]	
OCC(O)C(O)C(O)C(O)C1NCCS1 (stereo unspecified)	inconclusive: 31.6 µM [rising, partial curve, poor fit]	
c1ccc(COc2ccc(OCCN3CCCCC3)cc2)cc1	inactive	
Cc1ccc(-c2csc(N(CC3CCCO3)C(=O)c3ccco3)n2)cc1 (stereo unspecified)	inconclusive: 29.1 µM [cytotoxic, single point]	
CCCC(=O)N1CCN(c2ccc(NC(=O)c3ccc([N+](=O)[O-])o3)cc2)CC1	active: 6.51 µM	
